Experimental data taken from the supplement of paper PMC4604168 (melanoma cell lines).
The other results are listed elsewhere or left out. Most values come without repeats; read them as rough.

How the values were obtained:
Test in all cases: cell count relative to DMSO control; melanoma cells; higher = more viable cells
Conditions in all cases: library dose: standard library concentration; 72 h
[1] = test system: G361
[2] = test system: IPC-298
[3] = test system: IST-MEL1
[4] = test system: LB2518-MEL
[5] = test system: LOXIMVI
[6] = test system: MEL-HO
[7] = test system: MZ2-MEL
[8] = test system: MeWo
[9] = test system: RPMI7951
[10] = test system: RVH-421
[11] = test system: SkMel28
[12] = test system: SkMel2
[13] = test system: SkMel30
[14] = test system: SkMel5
[15] = test system: UACC257
[16] = test system: UACC62
[17] = test system: WM115
[18] = test system: WM1716
[19] = test system: WM1745
[20] = test system: WM3526
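Further: cells treated in 1,536-well plates, then fixed and DAPI-stained, with nuclei counted from automated high-throughput microscope images.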

Structure (SMILES) | cell count [1] | cell count [2] | cell count [3] | cell count [4] | cell count [5] | cell count [6] | cell count [7] | cell count [8] | cell count [9] | cell count [10] | cell count [11] | cell count [12] | cell count [13] | cell count [14] | cell count [15] | cell count [16] | cell count [17] | cell count [18] | cell count [19] | cell count [20]
CC(=O)O[C@@]12CO[C@@H]1C[C@H](O)[C@@]1(C)C(=O)[C@H](O)C3=C(C)[C@@H](OC(=O)[C@H](O)[C@@H](NC(=O)OC(C)(C)C)c4ccccc4)C[C@@](O)([C@@H](OC(=O)c4ccccc4)[C@H]21)C3(C)C [Docetaxel] + N.N.[Cl][Pt][Cl] [cisplatin] (first compound 0.0005 µM, partner dose 8 µM) | 14.2% | 47.4% | 31.5% | 64.6% | 47.2% | 34.7% | 51.7% | 32.5% | 13.7% | 30.9% | 25.4% | 22.8% | 49.2% | 42.5% | 64.9% | 45.2% | 45.6% | 39.2% | 34.3% | 45.2%
CC(C)(C)c1cnc(CSc2cnc(NC(=O)C3CCNCC3)s2)o1 + C/C(O)=C(\C#N)C(=O)Nc1cc(Br)ccc1Br [LFM-A13] (first compound 0.05 µM, partner dose 10 µM) | 79.1% | 119% | 87.7% | 79.2% | 87.8% | 90.8% | 88.6% | 91.4% | 39% | 108% | 58.3% | 89% | 69.7% | 56.5% | 91% | 52.5% | 70.5% | 78% | 81.2% | 88.6%
O=S(=O)(c1ccccc1)N(CC(F)(F)F)c1ccc(C(O)(C(F)(F)F)C(F)(F)F)cc1 + O=C(Oc1ccc([N+](=O)[O-])cc1)N1CCC(C(O)(c2ccc3c(c2)OCO3)c2ccc3c(c2)OCO3)CC1 [JZL184] (first compound 7 µM, partner dose 5 µM) | 99.3% | 95.8% | 115% | 145% | 82.5% | 108% | 92.6% | 77.1% | 77.7% | 99.3% | 105% | 113% | 101% | 83.5% | 80.1% | 78.2% | 80.7% | 121% | 80.5% | 81.8%
CCCCCCCCCCCCCCCCCCOP(=O)([O-])OC1CC[N+](C)(C)CC1 [Perifosine] + C[C@]12O[C@H](C[C@]1(O)CO)n1c3ccccc3c3c4c(c5c6ccccc6n2c5c31)CNC4=O [Lestaurtinib] (first compound 2 µM, partner dose 0.02 µM) | 80.5% | 70.1% | 93.9% | 62% | 104% | 81.4% | 93.4% | 70% | 35.1% | 94.6% | 64.5% | 92.7% | 71.3% | 64.7% | 101% | 84% | 79% | 83.2% | 88.3% | 78.4%
COc1cc(Nc2ncc(F)c(Nc3ccc4c(n3)NC(=O)C(C)(C)O4)n2)cc(OC)c1OC [Tamatinib] + O=C(Oc1ccc([N+](=O)[O-])cc1)N1CCC(C(O)(c2ccc3c(c2)OCO3)c2ccc3c(c2)OCO3)CC1 [JZL184] (first compound 2 µM, partner dose 5 µM) | 72.9% | 82.1% | 65.8% | 81.1% | 44.8% | 73.9% | 52.4% | 77.1% | 33.2% | 70.3% | 70.8% | 71.5% | 79.2% | 57.4% | 83.9% | 94.6% | 68.4% | 60.4% | 29.5% | 58.7%
CCc1ccc(CCOc2ccc(CC3SC(=O)NC3=O)cc2)nc1 (stereo not given) [pioglitazone] + C/C(O)=C(\C#N)C(=O)Nc1cc(Br)ccc1Br [LFM-A13] (first compound 10 µM, partner dose 10 µM) | 101% | 92.6% | 94.5% | 85.3% | 108% | 97.1% | 85.6% | 81.8% | 91.3% | 108% | 95.5% | 96.3% | 93.6% | 86.5% | 100% | 108% | 72.7% | 101% | 61.7% | 90%
COC(=O)c1sccc1S(=O)(=O)Nc1ccc(Nc2ccccc2)cc1OC + C/C(O)=C(\C#N)C(=O)Nc1cc(Br)ccc1Br [LFM-A13] (first compound 5 µM, partner dose 10 µM) | 101% | 104% | 106% | 89.4% | 131% | 103% | 76.3% | 114% | 78.6% | 87.5% | 88.1% | 103% | 85.6% | 110% | 108% | 103% | 88.5% | 91.3% | 89.4% | 103%
Cc1cc(N2CCOCC2)cc2[nH]c(-c3c(NC[C@@H](O)c4cccc(Cl)c4)cc[nH]c3=O)nc12 + Cc1cc(SCc2sc(-c3ccc(C(F)(F)F)c(F)c3)nc2C)ccc1OCC(=O)O [GW0742] (first compound 1 µM, partner dose 10 µM) | 86.7% | 77.4% | 97.1% | 96.6% | 58.5% | 99.3% | 102% | 77.8% | 87.3% | 89.6% | 61.7% | 90.1% | 92.5% | 68.9% | 118% | 133% | 102% | 102% | 49.1% | 73.3%
CCCCCCCCc1ccc(CCC(N)(CO)CO)cc1 [fingolimod] + N.N.[Cl][Pt][Cl] [cisplatin] (first compound 10 µM, partner dose 8 µM) | 1.13% | 43.6% | 7.69% | 0.183% | 18.6% | 18.8% | 62.4% | 45.5% | 0.741% | 2.59% | 20% | 7.5% | 8.25% | 61.4% | 74.2% | 20.8% | 11.6% | 53.2% | 17.1% | 45.6%
OCCn1cc(-c2cnc3nnn(Cc4ccc5ncccc5c4)c3n2)cn1 + C/C(O)=C(\C#N)C(=O)Nc1cc(Br)ccc1Br [LFM-A13] (first compound 5 µM, partner dose 10 µM) | 87.8% | 101% | 93.9% | 79.8% | 74.4% | 85.9% | 95.3% | 109% | 95.2% | 107% | 86.5% | 92.8% | 102% | 104% | 110% | 108% | 93.2% | 116% | 97.9% | 105%
COc1ccc(-c2ccc3c(N4CCOCC4)nc(N4C[C@@H](C)O[C@@H](C)C4)nc3n2)cc1CO + Cc1cc(SCc2sc(-c3ccc(C(F)(F)F)c(F)c3)nc2C)ccc1OCC(=O)O [GW0742] (first compound 0.1 µM, partner dose 10 µM) | 94.3% | 81.2% | 89.3% | 80.9% | 121% | 81.1% | 90.9% | 82.7% | 101% | 88.8% | 78.9% | 86.3% | 82.3% | 85.2% | 109% | 109% | 78.7% | 98.2% | 87.2% | 82.9%
NC(=O)Nc1cc(-c2cccc(F)c2)sc1C(=O)N[C@H]1CCCNC1 + C/C(O)=C(\C#N)C(=O)Nc1cc(Br)ccc1Br [LFM-A13] (first compound 0.1 µM, partner dose 10 µM) | 90.8% | 86.2% | 89.5% | 79.7% | 192% | 79.5% | 92% | 70.6% | 40.8% | 278% | 40.8% | 89.4% | 71.1% | 91.2% | 102% | 59.8% | 79.2% | 70.5% | 47.4% | 62.1%
Cn1cncc1[C@@](N)(c1ccc(Cl)cc1)c1ccc2c(c1)c(-c1cccc(Cl)c1)cc(=O)n2C [tipifarnib] + Cc1cc(SCc2sc(-c3ccc(C(F)(F)F)c(F)c3)nc2C)ccc1OCC(=O)O [GW0742] (first compound 0.05 µM, partner dose 10 µM) | 88.5% | 97.7% | 86.5% | 83.4% | 84.4% | 83.9% | 96.2% | 93% | 78.9% | 104% | 75.9% | 91.7% | 117% | 75.4% | 97.2% | 80% | 79.9% | 79.1% | 87.8% | 80.3%
Cc1ccc(Nc2nccc(N(C)c3ccc4c(C)n(C)nc4c3)n2)cc1S(N)(=O)=O [Pazopanib] + Cn1cc(C2=C(c3cn(C4CCN(Cc5ccccn5)CC4)c4ccccc34)C(=O)NC2=O)c2ccccc21 [Enzastaurin] (first compound 2 µM, partner dose 4 µM) | 70.3% | 74.6% | 74.1% | 75.9% | 68% | 73.7% | 66.1% | 69.3% | 27.6% | 73.9% | 77.9% | 90.7% | 92.5% | 72.2% | 86% | 46.4% | 124% | 72% | 49.8% | 78.5%
Cn1cnc2c(F)c(Nc3ccc(Br)cc3Cl)c(C(=O)NOCCO)cc21 [selumetinib] + N.N.[Cl][Pt][Cl] [cisplatin] (first compound 0.075 µM, partner dose 8 µM) | 77.6% | 71.8% | 90.1% | 57.4% | 98.1% | 85.4% | 106% | 70.7% | 91.9% | 69.4% | 87.8% | 86.4% | 48% | 85% | 92.4% | 62.4% | 71.7% | 66.8% | 89.1% | 58%
CC1(C)NC(=O)N(c2ccc([N+](=O)[O-])c(C(F)(F)F)c2)C1=O [nilutamide] + C/C(O)=C(\C#N)C(=O)Nc1cc(Br)ccc1Br [LFM-A13] (first compound 5 µM, partner dose 10 µM) | 88.7% | 92.7% | 96.5% | 137% | 88.6% | 97.1% | 32.5% | 101% | 101% | 98.6% | 117% | 96% | 85.8% | 92.7% | 95% | 92.2% | 99.2% | 101% | 101% | 77.6%
Cn1sc(=O)n(Cc2ccccc2)c1=O + C[As](C)SC[C@H](NC(=O)CC[C@H](N)C(=O)O)C(=O)NCC(=O)O [Darinaparsin] (first compound 2 µM, partner dose 2 µM) | 110% | 90.4% | 114% | 83.2% | 116% | 105% | 116% | 84.7% | 98.6% | 82.9% | 105% | 100% | 86.3% | 96.4% | 102% | 94.1% | 135% | 89.1% | 96.2% | 97.6%
